The source of these data is a collection of fitness landscapes (doi:10.1016/j.celrep.2020.107928).

Over roughly 81,000 sequences, “one-hybrid fitness for binding parS DNA” has its median near -0.17; the highest 2% begin near 0.51. This is one part of the list. Where only a bound is given, the exact number is not on record here.

B1: Caulobacter ParB omega fusion; a variant is named by its letters at X, in order, B8GW30 (parent)
chain: MESVVVGEPGMSEGRRGLGRGLSALLGEVDAAPAQAPGEQLGGSREAPIEILQRNPDQPRRTFREEDLEDLSNSIREKGVLQPILVRPSPDTAGEYQIVAGERAWRAAQRAGLKTVPIMVRELDDLAVLEIGIIENVQRADLNVLEEALSYKVLMEKFERTQENIAQTIGKSXSHVANXMRLLXLPDEVQSYLVSGELTAXHARAIAAAADPVALAKQIIEGGLSVRETEALARKAPNLSAGKSKGGRPPRVKDTDTQALESDLSSVLGLDVSIDHRGSTGTLTITYATLEQLDDLCNRLTRGI

The variants in this assay derive from B1. Kind of assay: one-hybrid fitness for binding parS DNA (scaled: cognate 1, non-cognate 0); higher = stronger binding. As to conditions: with parS DNA site. A digest of the protocol: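 Pre- and post-selection plasmids were Illumina-sequenced, three replicate libraries were pooled, and any variant with under 10 reads was removed. The libraries were Caulobacter ParB with four specificity codons randomised, selected in E. coli USO through a HIS3 reporter whose site is 19 bp from the promoter. Cells grew 48 hours at 37°C on M9 without histidine, with 0.1 mM IPTG and 5 mM 3-AT. Fitness is the log change in variant-to-wild-type read ratio, rescaled against cognate and non-cognate.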
With NRHQ, the “one-hybrid fitness for binding parS DNA” value was no more than 0.2. In the case of DLPN it was no more than 0.2. In the case of LPVW it was no more than 0.2; in that of LPTK, no more than 0.2; in that of FQNL, no more than 0.2. As to NLAD, the “one-hybrid fitness for binding parS DNA” value was no more than 0.2. In the case of PLRH it was no more than 0.2; in that of DEDT, no more than 0.2; in that of HDPL, no more than 0.2. For KLSS, the “one-hybrid fitness for binding parS DNA” value is no more than 0.2. For RPSN, the “one-hybrid fitness for binding parS DNA” value is no more than 0.2.

Turning to HMNE, the “one-hybrid fitness for binding parS DNA” value is no more than 0.2. With YVRD, the “one-hybrid fitness for binding parS DNA” value was no more than 0.2.

On to PPTA, for which the “one-hybrid fitness for binding parS DNA” value is no more than 0.2.

Regarding KHQF, the “one-hybrid fitness for binding parS DNA” value was no more than 0.2.

Consider VTVM, for which the “one-hybrid fitness for binding parS DNA” value is no more than 0.2.

Consider GLMT, for which the “one-hybrid fitness for binding parS DNA” value was no more than 0.2. On to FCNV, for which the “one-hybrid fitness for binding parS DNA” value was no more than 0.2. With YPGT the figure was no more than 0.2. In the case of HRAT it was no more than 0.2; in that of MTAD, no more than 0.2.

Consider ASAD, for which the “one-hybrid fitness for binding parS DNA” value is no more than 0.2. With GSSS the figure was no more than 0.2; with QTGP, no more than 0.2; with MWGG, no more than 0.2. In the case of TNGP it was no more than 0.2; in that of MAKI, no more than 0.2; in that of QLKP, no more than 0.2. With TNSL the figure was no more than 0.2; with KRAV, no more than 0.2; with SAWM, no more than 0.2. In the case of NKAW, the “one-hybrid fitness for binding parS DNA” value is no more than 0.2.

Regarding SKKR, the “one-hybrid fitness for binding parS DNA” value is no more than 0.2.

Consider TREE, for which the “one-hybrid fitness for binding parS DNA” value was no more than 0.2.

PLPL: the “one-hybrid fitness for binding parS DNA” value is no more than 0.2. With YKES the figure was no more than 0.2. With WRCT the figure was no more than 0.2; with QATC, no more than 0.2; with LQLT, no more than 0.2. In the case of ITPR it was no more than 0.2; in that of QYSK, no more than 0.2; in that of QKYV, no more than 0.2.

As to HHWT, the “one-hybrid fitness for binding parS DNA” value is no more than 0.2.

With PGES, the “one-hybrid fitness for binding parS DNA” value is no more than 0.2. With NAPQ the figure was no more than 0.2; with IMKR, no more than 0.2. With HLNN the figure was no more than 0.2. With QFFG the figure was no more than 0.2; with FWDR, no more than 0.2; with THNG, no more than 0.2. With TQIG, the “one-hybrid fitness for binding parS DNA” value is no more than 0.2. In the case of AGKF it was no more than 0.2; in that of QPKF, no more than 0.2; in that of NDGD, no more than 0.2. With DAGI the figure was no more than 0.2.

Regarding NVLR, the “one-hybrid fitness for binding parS DNA” value is no more than 0.2. On to KNFS, for which the “one-hybrid fitness for binding parS DNA” value was no more than 0.2. With PMQS the figure was no more than 0.2; with RSGS, 0.983.

Turning to RFAY, the “one-hybrid fitness for binding parS DNA” value stood at 0.425. In the case of RIGS, the “one-hybrid fitness for binding parS DNA” value was found to be 0.959. With PMSS the figure was no more than 0.2; with ASAV, no more than 0.2; with EWTN, no more than 0.2. In the case of AQIN it was no more than 0.2.

For VITG, the “one-hybrid fitness for binding parS DNA” value was no more than 0.2.

With SLYA, the “one-hybrid fitness for binding parS DNA” value is no more than 0.2. With CYFG the figure was no more than 0.2; with WMES, no more than 0.2; with CALW, no more than 0.2.

For the variant TFKH, the “one-hybrid fitness for binding parS DNA” value was no more than 0.2. In the case of TKCT it was no more than 0.2.

Take KYRC: the “one-hybrid fitness for binding parS DNA” value was no more than 0.2.

Turning to YDTM, the “one-hybrid fitness for binding parS DNA” value is no more than 0.2. On to LIER, for which the “one-hybrid fitness for binding parS DNA” value is no more than 0.2.

Take QDND: the “one-hybrid fitness for binding parS DNA” value is no more than 0.2. Take QHYY: the “one-hybrid fitness for binding parS DNA” value is no more than 0.2. With HDTI the figure was no more than 0.2. In the case of LEWT it was no more than 0.2; in that of PRWK, no more than 0.2; in that of YDIF, no more than 0.2.

For YNGI, the “one-hybrid fitness for binding parS DNA” value was no more than 0.2.

For AGRY, the “one-hybrid fitness for binding parS DNA” value is no more than 0.2. On to GKIG, for which the “one-hybrid fitness for binding parS DNA” value was no more than 0.2.

In the case of FMRT, the “one-hybrid fitness for binding parS DNA” value was no more than 0.2. In the case of NAVK it was no more than 0.2; in that of RHRM, 0.277; in that of IAGG, no more than 0.2.

As to AGDY, the “one-hybrid fitness for binding parS DNA” value was no more than 0.2. With SDPP the figure was no more than 0.2; with GRMC, no more than 0.2. With DLHA the figure was no more than 0.2; with RVSQ, no more than 0.2. In the case of LEHC it was no more than 0.2. On to KPAS, for which the “one-hybrid fitness for binding parS DNA” value is no more than 0.2. In the case of PSVG it was no more than 0.2; in that of HHCA, no more than 0.2. With AKRS the figure was no more than 0.2. In the case of VGPK, the “one-hybrid fitness for binding parS DNA” value was no more than 0.2.

For ISGK, the “one-hybrid fitness for binding parS DNA” value was no more than 0.2. In the case of AHRG it was no more than 0.2; in that of QLKV, no more than 0.2. Consider DMNG, for which the “one-hybrid fitness for binding parS DNA” value was no more than 0.2. In the case of CSAF it was no more than 0.2; in that of SCRG, no more than 0.2. Turning to HISR, the “one-hybrid fitness for binding parS DNA” value was no more than 0.2. As for HETV, the “one-hybrid fitness for binding parS DNA” value is no more than 0.2. In the case of VSWV it was no more than 0.2; in that of EDKW, no more than 0.2.

For the variant HRKV, the “one-hybrid fitness for binding parS DNA” value is no more than 0.2. On to CVQW, for which the “one-hybrid fitness for binding parS DNA” value was no more than 0.2. With QNET the figure was no more than 0.2. In the case of RFDR it was no more than 0.2; in that of QVEL, no more than 0.2. With RHGV the figure was no more than 0.2; with SSLM, no more than 0.2.

On to YKKS, for which the “one-hybrid fitness for binding parS DNA” value was no more than 0.2.

REYQ: the “one-hybrid fitness for binding parS DNA” value is no more than 0.2.

With HHKV, the “one-hybrid fitness for binding parS DNA” value was no more than 0.2.

Regarding TKPW, the “one-hybrid fitness for binding parS DNA” value was no more than 0.2. With RRRF the figure was no more than 0.2. In the case of QPDL, the “one-hybrid fitness for binding parS DNA” value is no more than 0.2. In the case of TWWE it was no more than 0.2; in that of HMKI, no more than 0.2. With TGQG the figure was no more than 0.2. On to CLWT, for which the “one-hybrid fitness for binding parS DNA” value was no more than 0.2. In the case of RYEM it was 0.275. In the case of QGNR it was no more than 0.2; in that of PSVW, no more than 0.2; in that of NWAE, no more than 0.2. With HMTC the figure was no more than 0.2. With TCRV, the “one-hybrid fitness for binding parS DNA” value was no more than 0.2. With LANN the figure was no more than 0.2.

As for NTSC, the “one-hybrid fitness for binding parS DNA” value was no more than 0.2.

On to LLCV, for which the “one-hybrid fitness for binding parS DNA” value is no more than 0.2. With LCRN the figure was no more than 0.2; with THEQ, no more than 0.2.

For the variant FRAR, the “one-hybrid fitness for binding parS DNA” value is no more than 0.2. In the case of PSFR it was no more than 0.2; in that of LDNN, 0.346. With TSVQ the figure was no more than 0.2. With KLRP the figure was no more than 0.2; with ECRS, no more than 0.2; with LIIR, no more than 0.2. For LAVC, the “one-hybrid fitness for binding parS DNA” value was no more than 0.2.

For the variant PMDF, the “one-hybrid fitness for binding parS DNA” value was no more than 0.2. With CFST the figure was no more than 0.2; with PNDQ, no more than 0.2; with QTER, no more than 0.2. In the case of MGGV it was no more than 0.2.

On to NWPC, for which the “one-hybrid fitness for binding parS DNA” value was no more than 0.2. With RRGR, the “one-hybrid fitness for binding parS DNA” value is no more than 0.2. In the case of PTPC it was no more than 0.2.
